Patent US20250236654A1, “C-TYPE NATRIURETIC PEPTIDE ENGRAFTED ANTIBODIES” (Bayer Aktiengesellschaft, priority 2018, published 2025)

Target: T1, human NPRA (hNPRA) (Homo sapiens, UniProt P16066)
T1 construct: expressed in transfected cells
T1 sequence (P16066 33-1061): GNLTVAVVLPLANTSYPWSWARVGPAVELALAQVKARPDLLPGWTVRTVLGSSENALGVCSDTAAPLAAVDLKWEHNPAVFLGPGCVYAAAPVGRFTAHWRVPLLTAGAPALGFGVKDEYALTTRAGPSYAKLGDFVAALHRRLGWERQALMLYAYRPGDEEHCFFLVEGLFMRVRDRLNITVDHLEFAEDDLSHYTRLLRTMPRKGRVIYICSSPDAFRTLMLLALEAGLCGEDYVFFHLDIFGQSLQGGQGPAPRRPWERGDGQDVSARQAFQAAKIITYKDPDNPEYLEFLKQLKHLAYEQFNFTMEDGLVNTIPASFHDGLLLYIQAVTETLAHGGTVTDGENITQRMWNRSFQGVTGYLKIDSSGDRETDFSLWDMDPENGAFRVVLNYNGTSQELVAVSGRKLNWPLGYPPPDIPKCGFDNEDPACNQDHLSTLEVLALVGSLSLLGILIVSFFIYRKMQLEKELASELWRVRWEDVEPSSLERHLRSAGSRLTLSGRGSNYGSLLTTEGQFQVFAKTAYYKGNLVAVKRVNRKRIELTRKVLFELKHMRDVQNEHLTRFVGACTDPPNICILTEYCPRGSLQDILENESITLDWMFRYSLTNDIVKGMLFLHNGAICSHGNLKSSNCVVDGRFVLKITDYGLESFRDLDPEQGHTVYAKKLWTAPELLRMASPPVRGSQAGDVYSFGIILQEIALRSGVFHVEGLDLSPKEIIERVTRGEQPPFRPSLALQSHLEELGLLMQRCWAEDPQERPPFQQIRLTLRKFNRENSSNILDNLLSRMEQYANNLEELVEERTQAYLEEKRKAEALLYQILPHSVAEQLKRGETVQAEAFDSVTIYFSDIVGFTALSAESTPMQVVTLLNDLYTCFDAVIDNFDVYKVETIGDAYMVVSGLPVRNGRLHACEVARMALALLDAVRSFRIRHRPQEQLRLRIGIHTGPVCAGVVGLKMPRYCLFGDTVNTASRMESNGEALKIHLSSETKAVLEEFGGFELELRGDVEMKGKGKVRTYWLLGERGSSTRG
Test: cGMP quantification assay (HTRF) on stable hNPRA-CHO k1 cells (rcs, ics, pcs samples)
Format: cell-based
Conditions: raw compound samples (rcs) on stable hNPRA-CHO k1 cells; reference TPP-5661 (#117) gives 36%; n.a. = not active
Procedure: All activities shown in Tables 7 and 8 were measured on cells with heterologous over expression of human NPRA (hNPRA) by use of a cGMP quantification assay conducted according to manufacturer's instructions (cisbio; 62GM2PEH). In brief, the assay quantifies cGMP in buffered solution or cell-culture supernatants based on the competition between cGMP produced by the cell as result of the NPRA stimulation through the (natriuretic peptide) sample and d2 labelled cGMP for binding to a Cryptate labelled antibody. Sample cGMP and d2 labeled cGMP compete for binding to a limited number of sites on Cryptate labeled anti-cGMP antibodies, and consequently, HTRF® specific fluorescent signal (i.e. energy transfer) is inversely proportional to the concentration of cGMP in the sample.
Dose-response curve data were analyzed with GraphPad Prism (version 7.00 for Windows, GraphPad Software, La Jolla California USA) and EC50 were fitted according to Y=Bottom+(Top-Bottom)/(1+10∧((Log EC50-X)*HillSlope)) applying constraints for bottom, top and slope (shared value for all data sets of the respective experiment).
The raw compound sample activity on stable hNPRA-CHO k1 cells was first assessed by comparison to the negative control TPP-5657 and to a positive sample, in particular TPP-5661. Controls and res were tested in quadruplets in two concentrations with a relative dilution factor of 5 aiming for a fluorescent signal (s) in the dynamic range of the assay. […] Values listed in Table 7, columns “activity res” and “stdev activity res”, represent the average of the results for the two concentrations and the respective standard deviation. Res signals less than half of the signal of the reference compound TPP-5661 (36%) were assessed as not active (n.a.).
The activity of several raw compound samples on stable hNPRA-CHO k1 cells was reassessed by comparison to reference sample TPP-5661 in 2.5-fold dilution series (8 concentrations) starting with a 5-fold dilution. The “log EC50” fit value as activity measure of the res was set in relation to the corresponding value of the reference res TPP-5661 by calculating the delta “log EC50” _compound −“log EC50” _TPP-5661; resulting values are listed in Table 7, column “rel. activity res”. […] All samples were applied in quadruplets.
The activity of isolated compound samples on stable hNPRA-CHO k1 cells was assessed by EC50 determination and comparison to reference sample TPP-5661. Samples were tested in 2.5-fold dilution series from 80 nM to 0.13 nM. The log EC50 fit value as activity measure of the ics was set in relation to the corresponding value of the reference ics TPP-5661 (−8.8) by calculating the delta log EC50_compound−log EC50_TPP-5661; resulting values are listed in Table 7, column “rel. log EC50 ics”. All samples were applied in quadruplets.
The activity of purified compound samples on stable hNPRA-CHO k1 cells was assessed in multiple experiments by EC50 determination and comparison to reference sample TPP-5661. Samples were tested in dilution series at least in quadruplets. […] The log EC50 fit value as activity measure of the pcs was set in relation to the corresponding value of the reference TPP-5661 in the respective experiment (in average −9.2, standard deviation 0.5) by calculating the delta log EC50_compound−log EC50_TPP-5661.

B1: TPP-5657: “empty” antibody without natriuretic peptide, SEQ ID NO 65 and SEQ ID NO 66; negative control (antibody, listed as Homo sapiens)
heavy: [letters of about 100 residues left out]LTGAEYFQHWGQGTLVTVSS[letters of human IgG1 constant region left out]
light: QSVLTQPPSVSGAPGQRVTISCTGSSSNIGAGYDVHWYQQLPGTAPKLLIYGNSNRPSGVPDRFSGSKSGTSASLAITGLQAEDEADYYCQSYDSSLSGVVFGGGTKLTVLGQPKAAPSVTLFPPSSEELQANKATLVCLISDFYPGAVTVAWKADSSPVKAGVETTTPSKQSNNKYAASSYLSLTPEQWKSHRSYSCQVTHEGSTVEKTVAPTECS
activity rcs: n.a. (Res signals less than half of the signal of the reference compound TPP-5661 (36%) were assessed as not active (n.a.))
